From patent US8609712B2, “Purification of progesterone receptor modulators” (Wyeth LLC, priority 0205, dated 2013)

## Cn1c(C#N)ccc1-c1ccc2c(c1)C1(CCCCC1)C(=S)N2.[Na]
Choline salt
  melting point: 159 °C
Sodium salt
  melting point: 83.4 °C

Where two headings read alike, the source gives them in different places. Some values that stand alone complete this part of the results.
